# Measurements reported in paper PMC6919601, “Identification of Plasmodium dipeptidyl aminopeptidase allosteric inhibitors by high throughput screening” (PLoS ONE, 2019).
# Several values for one entry are separate records, joined by “and”; a condition that tells them apart may be missing. Equal values may be shown once. Among all 110,000 compounds or so, about 230 (0.21%) showed an effect of 50% or more. This is one part of the list.
# Target: DPAP1 (Plasmodium falciparum, UniProt Q8IIJ9)
# Assay: primary screen, percent inhibition; read by cleavage of a fluorogenic dipeptide substrate; higher = more effect of the substance
# Set-up: species or system P. falciparum D10 trophozoite lysates; single well
# 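Also: 30 min substrate incubation versus DMSO and 10 µM JCP410 controls.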
# Chain of DPAP1 (Q8IIJ9 whole entry, looked up): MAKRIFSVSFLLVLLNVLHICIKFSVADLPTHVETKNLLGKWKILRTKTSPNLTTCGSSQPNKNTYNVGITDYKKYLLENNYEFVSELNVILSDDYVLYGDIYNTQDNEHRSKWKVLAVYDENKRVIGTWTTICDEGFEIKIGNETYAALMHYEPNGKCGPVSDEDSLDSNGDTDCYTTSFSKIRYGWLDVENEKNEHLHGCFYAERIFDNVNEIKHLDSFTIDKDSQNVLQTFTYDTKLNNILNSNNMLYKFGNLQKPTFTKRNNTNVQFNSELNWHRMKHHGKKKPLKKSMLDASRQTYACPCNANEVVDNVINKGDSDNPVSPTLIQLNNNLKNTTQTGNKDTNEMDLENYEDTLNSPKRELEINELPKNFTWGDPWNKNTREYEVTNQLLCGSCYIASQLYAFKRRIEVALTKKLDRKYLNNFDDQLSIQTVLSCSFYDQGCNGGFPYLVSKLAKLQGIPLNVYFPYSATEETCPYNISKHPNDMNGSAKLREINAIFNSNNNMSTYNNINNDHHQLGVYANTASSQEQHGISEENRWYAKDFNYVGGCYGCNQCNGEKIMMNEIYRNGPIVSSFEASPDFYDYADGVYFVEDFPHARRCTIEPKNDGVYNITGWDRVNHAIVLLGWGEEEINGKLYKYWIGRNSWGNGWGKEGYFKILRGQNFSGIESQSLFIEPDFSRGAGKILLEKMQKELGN
row,SMILES,% Inhibition @ 10 uM
1,Cc1nn(Cc2noc(C(=O)NC3CCC(C)CC3)n2)c(C)c1Br (centres unmarked),4.57%
2,COc1ccc2[nH]cc(C3N4CC5(C)CN3CC(C)(C4)C5=O)c2c1 (centres unmarked),-3.13%
3,Cc1cc(Br)cc2c[nH]nc12,-1.24%
4,Cc1ccc(OCCCCCCN2CCCCC2)cc1,-2.28%
5,CCc1ccc(C(=O)c2cn(CC(=O)NCc3ccccc3)c3nc(C)ccc3c2=O)cc1,2.18%
6,O=C(CSc1ccc(Cl)cc1)Nc1ccc2c(c1)OCO2,-3.83%
7,CC(Nc1nn2nnnc2c2ccccc12)C12CC3CC(CC(C3)C1)C2 (centres unmarked),1.67%
8,COc1ccc(CO/C(O)=C2/C(C)=NC3=C(C(=O)CCC3)C2c2ccc(Br)cc2)cc1 (centres unmarked),25.8%
9,CCCn1c2c(c(O)c(C(=O)Nc3cccc(C)n3)c1=O)CCCC2,-0.458%
10,CCOc1ccccc1C(=O)Nc1cc(C)ccn1,0.408%
11,COc1ccc2cc(/N=C/c3nc(-c4cccc5ccccc45)oc3O)cnc2c1,-4.76%
12,Cc1cc2n(n1)C(c1ccc3c(c1)OCO3)Nc1ccccc1-2 (centres unmarked),3.72%
13,O=C1CC(=O)N(c2ccccc2Cl)C(=S)N1,-0.833%
14,NC(=O)Nc1ccccc1C(=O)Nc1ccc2ccccc2c1,-1.84%
15,Cn1ncc2c(NC3CCCC3)ncnc21,4.61%
16,CN(C)CCNC(=O)C(=O)NCC(c1cccnc1)N1CCOCC1 (centres unmarked),-3.51%
17,CC1CCN(c2nc3c(c(C(F)(F)F)n2)CCCCC3)CC1,0.505%
18,CN(C1=C(N2CCCC2)C(=O)c2ccccc2C1=O)c1ccccc1,3.18%
19,CC1CCC(NC(=O)CCCNS(=O)(=O)c2cccc3nsnc23)CC1 (centres unmarked),0.317%
20,COc1cc(OC)c(C2C3=C(O)CC(C)(C)CC3=Nc3ncnn32)cc1OC (centres unmarked),3.32%
21,CCCNC(=O)C1CCN(c2nnc(C)c3c(C)n(-c4ccc(Cl)cc4)nc23)CC1,6.62%
22,CCCCCCNc1nc(OCC)nc(N2CC3CC(C2)c2cccc(=O)n2C3)n1 (centres unmarked),-0.703%
23,CC1CCC(C(=O)NC(Cc2c[nH]c3ccccc23)C(=O)Nc2ccncc2)CC1 (centres unmarked),-3.27%
24,Fc1ccccc1C1CC(c2ccc(Cl)cc2)=NN1c1cccc(Br)c1 (centres unmarked),0.035%
25,O=C1c2cccc3cccc(c23)C(=O)N1c1ccc(O)cc1,-5.49%
26,O=C(c1ccc2c(c1)C(=O)N(Cc1ccco1)C2O)N1CCOCC1 (centres unmarked),-2.88%

row,SMILES,% Inhibition @ 10 uM
1,Oc1nc(S)nc2c1C1(CCCC1)Cc1ccccc1-2,-5.62%
2,O=C(CCCCCNc1nc(S)nc2ccccc12)NC1CCCC1,0.0904%
3,Cc1ccc(OCCCCCN2CCCC2)cc1C,1.35%
4,CCCCCCCC(=O)C1C(=O)C=C(C)OC1=O (centres unmarked),-3.77%
5,CCOc1ccc2oc(=O)cc(CN3CCC(Cc4ccccc4)CC3)c2c1,0.00706%
6,Cc1cc(-c2ccc(NC(=O)C3CCCO3)c(C)c2)ccc1NC(=O)C1CCCO1 (centres unmarked),-1.42%
7,COC(=O)c1ccc(COc2ccc3oc(-c4ccc(OC)cc4)cc(=O)c3c2)cc1,1.32%
8,C/N=c1\c(NS(=O)(=O)c2ccc(C(C)(C)C)cc2)c(O)oc2ccccc12,2%
9,Cc1ccc(NC(=O)CN2C(=O)c3ccccc3C2=O)c(Br)c1,9.29%
10,Cc1ccc(Sc2ccncc2S(=O)(=O)NC(=O)c2ccc(Cl)cc2)cc1,0.408%
11,CN(C(=O)c1ccc2c(c1)C(=O)N(CCC1=CCCCC1)C2=O)C1CCCCC1,2.94%
12,C=CCn1c(SCC(=O)NCC2CCCO2)nc2scc(-c3ccccc3Cl)c2c1=O (centres unmarked),-1.28%
13,COc1ccc2nc(N(CCN(C)C)C(=O)c3cccs3)sc2c1,-4.73%
14,CCCCN(C)CCNC(=O)Cn1ncc2c1-c1cc(C)ccc1OC2,-5.54%
15,COc1cccc2cc(-c3nc4cc(C(=O)O)ccc4[nH]3)c(=O)oc12,2.97%
16,Cc1ccc(Oc2cc(-n3ccc(C)n3)ncn2)cc1,1.35% and 1.88%
17,O=C(NCc1nc(-c2ccccc2)no1)C12CC3CC(CC(C3)C1)C2,-6.72%
18,COc1ccc(C)c2sc(N(CCN(C)C)C(=O)COc3ccccc3)nc12,7.69%
19,Cc1ccc(-c2nc(-n3c(C)c4c(C)nnc(C)c4c3C)sc2C)cc1C,0.778%
20,COc1cccc(NC(=O)c2sc3nc4c(cc3c2N)CCCC4)c1,-1.89%
21,Cc1cccc(C(=O)Nc2nc3ccc(C)cc3s2)c1,2.26%
22,COc1cccc(N(CC(=O)Nc2cccc(Br)c2)S(C)(=O)=O)c1,3.17%
23,Cc1cccc(NC(=O)C2COc3ccccc3O2)c1C (centres unmarked),-0.28%
24,CC(=O)c1ccc2c(c1)OCCOCCOCCO2,0.0974%
25,COc1cccc2c(Nc3ccccc3C)cc(C)nc12,-2.99%
26,C=CCc1cccc(/C=N/c2cccn3cc(-c4ccccc4)nc23)c1O,-1.17%

row,SMILES,% Inhibition @ 10 uM
1,CC(C)c1nnc(N2C(=O)c3oc4ccccc4c(=O)c3C2c2cccs2)s1 (centres unmarked),-1.86%
2,Cc1ccc(N2C(=O)/C(=C/c3ccccc3)N=C2NC(C)(C)C)cc1,4.27%
3,COc1ccc(CNC(=O)c2noc3c2CCc2ccccc2-3)cc1,-3.77%
4,O=C(CSc1nnc2c(n1)[nH]c1ccccc12)Nc1nc2c(s1)CCCC2,34.6%
5,CC(=O)c1cccc(NC(=O)C2C3CCC(C3)C2C(=O)O)c1 (centres unmarked),3.1%
6,Cn1cccc1Cc1nnc(SCC(=O)NCC2CCCO2)n1C (centres unmarked),-4.94%
7,COC(=O)C1=CNC=C(C(=O)OC)C1c1ccc(C(=O)OC)cc1,-3.04%
8,CC(C)C[C@H](NC(=O)c1nc(-c2ccccc2)c(-c2ccccc2)s1)C(=O)NCC#N,-3.48%
9,COCCCNC(=O)c1cc2c(=O)n3cc(C)ccc3nc2n(CCN2CCOCC2)c1=N,-5.14%
10,CC(=O)Nc1ccc(S(=O)(=O)N2CCN(c3cccc(Cl)c3)CC2)cc1,32.8%
11,CC(=O)NCCCc1nc2ccccc2n1Cc1c(F)cccc1Cl,3.41%
12,COc1ccc(CCNC(=O)C(NS(=O)(=O)c2cccc3nsnc23)C(C)C)cc1OC (centres unmarked),-0.465%
13,CCN(CC)CCOC(=O)c1ccc(NC)cc1,3.06%
14,C/C(Cl)=C/CSc1nc2c(c(=O)[nH]c(=O)n2C)n1Cc1ccc(Cl)cc1,-0.864%
15,COc1cc(CN(C(=S)NCC(=O)NCCc2ccccc2)C2CCCC2)cc(OC)c1OC,-0.406%
16,OCCC#CCN1CCCCC1c1cccnc1 (centres unmarked),-1.69%
17,O=C(CCNS(=O)(=O)c1ccc(Br)s1)NCCc1ccc(Cl)cc1,6.29%
18,O=C1NC(=S)N(c2ccccc2)C(=O)/C1=C\c1ccc[nH]1,5.31%
19,CCc1nn(C(CC)C(=O)NCCc2ccc(OC)cc2OC)c(=O)c2cc3occc3n12 (centres unmarked),-3.79%
20,CCOC(=O)N1CCN(C(=O)c2cc(-c3ccc(Cl)cc3)[nH]n2)CC1,6.74%
21,NC(=O)COc1ccc(/C=C2\S/C(=N\c3ccccc3)N(c3ccccc3)C2=O)cc1,0.812%
22,CC(O)C/N=c1\cc(O)oc2ccccc12 (centres unmarked),-7.3%
23,Cc1ccc2c(c1)C1CC(C)(NC(=S)N1)O2 (centres unmarked),-15.3%
24,CC(C)CC(C(=O)NC1CCN(Cc2ccccc2)CC1)N1Cc2ccccc2C1=O (centres unmarked),-2.41%
25,Cn1c(=O)c2c(ncn2CC(=O)NCc2ccccn2)n(C)c1=O,6.12%
26,O=C(c1cccs1)c1cn(CC(=O)N2CCCCC2)c2ccccc12,1.62%

row,SMILES,% Inhibition @ 10 uM
1,CN(C)CCN(C(=O)c1ccco1)c1nc2cc3c(cc2s1)OCO3,-6.17%
2,CCOCc1nc(O)c2c(n1)-c1ccccc1CC21CCCC1,3.01%
3,CCCCCNC(=O)c1ccc(OC)c(OC)c1,-4.68%
4,O=C(NCc1ccccc1)c1noc2c1CCCCC2,0.0221%
5,c1ccc(-c2cn3cccnc3n2)cc1,4.33%
6,CC1(C)Cc2c(sc(NC(=O)CO/N=C/c3ccccc3Cl)c2C#N)C(C)(C)N1,-5.5%
7,CC(NC(=O)C1CCN(c2nnc(-n3cccc3)s2)CC1)C12CC3CC(CC(C3)C1)C2 (centres unmarked),2.76%
8,Cn1ccnc1SCC(=O)Nc1ccccc1C(F)(F)F,-6.59%
9,CCc1ccc(-c2nc(-c3ccccc3C)no2)cc1,1.88%
10,NC(=O)c1cccc(N2C(=O)c3ccccc3C2=O)c1,5.29%
11,CCN1CCN(c2ccc(NC(=O)c3ccc(Br)o3)cc2)CC1,-4.12%
12,Cc1ccc(C2C3CN(C)CC=C3C(C#N)=C(N)C2(C#N)C#N)c(C)c1 (centres unmarked),2.8%
13,CC(C)(C)c1ccc(C2CCCCN2)cc1 (centres unmarked),-1.06%
14,COc1ccc(OC)c(C(=O)c2ccc(C(=O)NC3CC(C)(C)NC(C)(C)C3)cc2)c1,-7.23%
15,CCOc1ccc(/C=C/C(=O)NCC2CCCO2)cc1 (centres unmarked),-1.52%
16,COc1ccc(CN2C(=O)c3cccnc3C2=O)cc1S(=O)(=O)NC(C)C,6.97%
17,COC(=O)Nc1ccc2c(c1)N(C(=O)CN(C)C)c1ccccc1CC2,-0.736%
18,CCOc1ccc(-c2cc(C(=O)O)c3cccc(C)c3n2)cc1,2.09%
19,c1cnc(NC2CCCCCC2)nc1,3.42%
20,Clc1ccc(NCC2CCCCC2)nn1,4.11%
21,CC1CCN(S(=O)(=O)c2ccc3c(ccn3CCC(=O)NC3CCCC(C)C3C)c2)CC1 (centres unmarked),2.45%
22,CC1(C)CC(n2c(=S)[nH]c3c(c2=O)C2(CCCCC2)Cc2ccccc2-3)CCO1 (centres unmarked),-1.99%
23,CCCCCOC(=O)C1=C(C)NC(=O)NC1c1ccc(Cl)c(Cl)c1 (centres unmarked),5.7%
